According to the supplement of paper PMC4604168 (melanoma cell lines):
The other results are listed elsewhere or left out. Many values rest on one well or one pass, so single values are uncertain.

Experiments:
Assay in all cases: cell count relative to DMSO control; melanoma cells; higher = more viable cells
Details in all cases: library dose: standard library concentration; 72 h
G361 = test system: G361
IPC-298 = test system: IPC-298
IST-MEL1 = test system: IST-MEL1
LB2518-MEL = test system: LB2518-MEL
LOXIMVI = test system: LOXIMVI
MEL-HO = test system: MEL-HO
MZ2-MEL = test system: MZ2-MEL
MeWo = test system: MeWo
RPMI7951 = test system: RPMI7951
RVH-421 = test system: RVH-421
SkMel28 = test system: SkMel28
SkMel2 = test system: SkMel2
SkMel30 = test system: SkMel30
SkMel5 = test system: SkMel5
UACC257 = test system: UACC257
UACC62 = test system: UACC62
WM115 = test system: WM115
WM1716 = test system: WM1716
WM1745 = test system: WM1745
WM3526 = test system: WM3526
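Also: cells treated in 1,536-well plates, then fixed and DAPI-stained, with nuclei counted from automated high-throughput microscope images.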

Row | SMILES | cell count (G361) [%] | cell count (IPC-298) [%] | cell count (IST-MEL1) [%] | cell count (LB2518-MEL) [%] | cell count (LOXIMVI) [%] | cell count (MEL-HO) [%] | cell count (MZ2-MEL) [%] | cell count (MeWo) [%] | cell count (RPMI7951) [%] | cell count (RVH-421) [%] | cell count (SkMel28) [%] | cell count (SkMel2) [%] | cell count (SkMel30) [%] | cell count (SkMel5) [%] | cell count (UACC257) [%] | cell count (UACC62) [%] | cell count (WM115) [%] | cell count (WM1716) [%] | cell count (WM1745) [%] | cell count (WM3526) [%]
1 | C[C@]12O[C@H](C[C@]1(O)CO)n1c3ccccc3c3c4c(c5c6ccccc6n2c5c31)CNC4=O [Lestaurtinib] + CN(NC(=O)CC(=O)NN(C)C(=S)c1ccccc1)C(=S)c1ccccc1 [STA4783] (first compound 0.02 µM, partner dose 0.03 µM) | 31.8 | 59.9 | 8.68 | 20.2 | 55 | 79.8 | 109 | 22.6 | 75.1 | 51.1 | 28.2 | 64.6 | 73.2 | 46.3 | 94.8 | 34.6 | 17.1 | 73.4 | 25.4 | 61.4
2 | Cn1cc(C2=C(c3cn(C4CCN(Cc5ccccn5)CC4)c4ccccc34)C(=O)NC2=O)c2ccccc21 [Enzastaurin] + CCN(CC)CCNC(=O)c1c(C)[nH]c(/C=C2\C(=O)Nc3ccc(F)cc32)c1C [sunitinib] (first compound 4 µM, partner dose 2 µM) | 75 | 81.8 | 111 | 78.5 | 144 | 75.7 | 107 | 80.8 | 40.6 | 65.7 | 64.1 | 68.5 | 66.2 | 63.4 | 76.7 | 35.5 | 83.9 | 89 | 28.8 | 61.1
3 | Cn1cc(C2=C(c3cn(C4CCN(Cc5ccccn5)CC4)c4ccccc34)C(=O)NC2=O)c2ccccc21 [Enzastaurin] + C=CCNC1=C2C[C@@H](C)C[C@H](OC)[C@H](O)[C@@H](C)/C=C(\C)[C@H](OC(N)=O)[C@@H](OC)/C=C\C=C(/C)C(=O)NC(=CC1=O)C2=O [Tanespimycin] (first compound 4 µM, partner dose 0.01 µM) | 62 | 83.5 | 72.6 | 57.1 | 83.6 | 90.5 | 97.4 | 70.6 | 23.4 | 74.5 | 53.3 | 51.2 | 88.7 | 75.1 | 104 | 50.3 | 21.3 | 82 | 21.1 | 73.4
4 | N.N.[Cl][Pt][Cl] [cisplatin] + C#Cc1cccc(Nc2ncnc3cc(OCCOC)c(OCCOC)cc23)c1 [erlotinib] (first compound 8 µM, partner dose 4 µM) | 104 | 92.8 | 96.2 | 94.1 | 119 | 95.1 | 96.3 | 97.9 | 107 | 98.1 | 111 | 126 | 84 | 81.6 | 83.5 | 68 | 77.6 | 102 | 71.8 | 103
5 | N.N.[Cl][Pt][Cl] [cisplatin] + CC(=O)c1c(C)c2cnc(Nc3ccc(N4CCNCC4)cn3)nc2n(C2CCCC2)c1=O [palbociclib] (first compound 8 µM, partner dose 0.2 µM) | 74.2 | 81.7 | 82.2 | 74.7 | 63.1 | 80.5 | 82.3 | 67.7 | 55.7 | 70.1 | 56.9 | 79.9 | 76.7 | 62.9 | 71 | 65.8 | 83.2 | 45.9 | 83.3 | 42.2
6 | C[As](C)SC[C@H](NC(=O)CC[C@H](N)C(=O)O)C(=O)NCC(=O)O [Darinaparsin] + CC(C)(C)c1cnc(CSc2cnc(NC(=O)C3CCNCC3)s2)o1 [SNS-032] (first compound 2 µM, partner dose 0.05 µM) | 69.9 | 101 | 73.5 | 72.2 | 48.9 | 86.5 | 91.1 | 69.2 | 16.3 | 85.8 | 50.3 | 73.3 | 67.9 | 44.9 | 79.6 | 59.1 | 41.8 | 39.4 | 56.9 | 72
7 | Cn1cc(C2=C(c3cn(C4CCN(Cc5ccccn5)CC4)c4ccccc34)C(=O)NC2=O)c2ccccc21 [Enzastaurin] + Nc1cccc2c1CN(C1CCC(=O)NC1=O)C2=O [lenalidomide] (first compound 4 µM, partner dose 5 µM) | 76.6 | 114 | 82.7 | 100 | 70.4 | 96.7 | 88.2 | 100 | 61.2 | 61.8 | 103 | 103 | 90.7 | 72.9 | 87 | 78.4 | 75.5 | 71.4 | 69.6 | 89.1
8 | C[C@]12O[C@H](C[C@]1(O)CO)n1c3ccccc3c3c4c(c5c6ccccc6n2c5c31)CNC4=O [Lestaurtinib] + CC(=O)O[C@@]12CO[C@@H]1C[C@H](O)[C@@]1(C)C(=O)[C@H](O)C3=C(C)[C@@H](OC(=O)[C@H](O)[C@@H](NC(=O)OC(C)(C)C)c4ccccc4)C[C@@](O)([C@@H](OC(=O)c4ccccc4)[C@H]21)C3(C)C [Docetaxel] (first compound 0.02 µM, partner dose 0.0005 µM) | 13.3 | 40.7 | 33.4 | 30.7 | 58.9 | 33.1 | 37.6 | 19.9 | 22.2 | 51.3 | 13.1 | 14.2 | 33.2 | 28.1 | 58.8 | 53.4 | 28.3 | 31.6 | 24 | 30.4
9 | C[C@]12O[C@H](C[C@]1(O)CO)n1c3ccccc3c3c4c(c5c6ccccc6n2c5c31)CNC4=O [Lestaurtinib] + Cn1c(=O)n(-c2ccc(C(C)(C)C#N)cc2)c2c3cc(-c4cnc5ccccc5c4)ccc3ncc21 [NVP-BEZ235] (first compound 0.02 µM, partner dose 0.02 µM) | 49.1 | 55.9 | 74.4 | 47.1 | 99.9 | 57.5 | 70.2 | 53.9 | 86.1 | 71.7 | 51.2 | 71.6 | 58 | 48.2 | 83.3 | 83.3 | 54.2 | 73.5 | 65.2 | 58.1
10 | C[As](C)SC[C@H](NC(=O)CC[C@H](N)C(=O)O)C(=O)NCC(=O)O [Darinaparsin] + O=C(Oc1ccc([N+](=O)[O-])cc1)N1CCC(C(O)(c2ccc3c(c2)OCO3)c2ccc3c(c2)OCO3)CC1 [JZL184] (first compound 2 µM, partner dose 5 µM) | 76.8 | 102 | 102 | 89.5 | 95.9 | 86.1 | 85.8 | 66.4 | 76.5 | 104 | 85.5 | 95.2 | 83.6 | 47.6 | 90.2 | 71.7 | 73 | 63.1 | 109 | 62.4
11 | C[C@]12O[C@H](C[C@]1(O)CO)n1c3ccccc3c3c4c(c5c6ccccc6n2c5c31)CNC4=O [Lestaurtinib] + CO[C@@H]1[C@H](N(C)C(=O)c2ccccc2)C[C@H]2O[C@]1(C)n1c3ccccc3c3c4c(c5c6ccccc6n2c5c31)C(=O)NC4 [Midostaurin] (first compound 0.02 µM, partner dose 0.4 µM) | 63.1 | 69.3 | 82.2 | 53.8 | 81.7 | 82 | 84.4 | 66.2 | 68.6 | 67.7 | 45.6 | 73.3 | 65.9 | 47.3 | 73.7 | 72.1 | 54.2 | 73.7 | 37.7 | 67
12 | C[C@]12O[C@H](C[C@]1(O)CO)n1c3ccccc3c3c4c(c5c6ccccc6n2c5c31)CNC4=O [Lestaurtinib] + CC(C)C[C@H](NC(=O)[C@H](Cc1ccccc1)NC(=O)c1cnccn1)B(O)O [Bortezomib] (first compound 0.02 µM, partner dose 0.005 µM) | 2.39 | 9.87 | 4.55 | 4.64 | 34.2 | 13.5 | 5.9 | 12 | 6.38 | 21.1 | 31.3 | 46.1 | 33.5 | 33.3 | 77.7 | 56 | 29.8 | 21.2 | 25 | 27.1
13 | C[As](C)SC[C@H](NC(=O)CC[C@H](N)C(=O)O)C(=O)NCC(=O)O [Darinaparsin] + Cn1cncc1[C@@](N)(c1ccc(Cl)cc1)c1ccc2c(c1)c(-c1cccc(Cl)c1)cc(=O)n2C [tipifarnib] (first compound 2 µM, partner dose 0.05 µM) | 79.6 | 76.9 | 116 | 75 | 52.8 | 77 | 113 | 71.3 | 57.2 | 85.4 | 64.5 | 77.2 | 82.5 | 46.5 | 74.4 | 77.7 | 63.4 | 46.8 | 105 | 61.9
14 | C[C@]12O[C@H](C[C@]1(O)CO)n1c3ccccc3c3c4c(c5c6ccccc6n2c5c31)CNC4=O [Lestaurtinib] + NC1(c2ccc(-c3nc4ccn5c(=O)[nH]nc5c4cc3-c3ccccc3)cc2)CCC1 [MK2206] (first compound 0.02 µM, partner dose 2 µM) | 41.4 | 53.6 | 80.2 | 52.1 | 209 | 50.3 | 61.7 | 55.2 | 114 | 82.3 | 61.9 | 57.3 | 71.8 | 51 | 99.9 | 153 | 28.4 | 76.3 | 66.9 | 36.3
15 | Cn1cc(C2=C(c3cn(C4CCN(Cc5ccccn5)CC4)c4ccccc34)C(=O)NC2=O)c2ccccc21 [Enzastaurin] + CN(c1ncccc1CNc1nc(Nc2ccc3c(c2)CC(=O)N3)ncc1C(F)(F)F)S(C)(=O)=O [PF562271] (first compound 4 µM, partner dose 0.4 µM) | 66.5 | 70.5 | 70.4 | 68.9 | 137 | 88.8 | 65 | 82.8 | 42.8 | 49.6 | 73.1 | 73.3 | 89.2 | 48.6 | 76.8 | 47.5 | 68.2 | 62.3 | 55.1 | 82.3
16 | N.N.[Cl][Pt][Cl] [cisplatin] + CN(C)S(=O)(=O)c1ccc2c(c1)/C(=C/c1cc3c([nH]1)CCCC3)C(=O)N2 [SU6656] (first compound 8 µM, partner dose 2 µM) | 68.8 | 109 | 83 | 68.3 | 96.7 | 102 | 109 | 85.3 | 69.6 | 86.2 | 47.5 | 82.7 | 71.3 | 72 | 104 | 101 | 67.8 | 93.9 | 66.6 | 89.3
